Consider 83 compounds from PubChem BioAssay AID1346428 (National Center for Advancing Translational Sciences (NCATS), 2018).

The whole screen tested about 48,000 compounds, of which about 1,200 (2.5%) were called active. Roughly 2% stayed inconclusive and do not appear here.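 Rule for the calls: active = activation of at least 60% and not above a set upper limit (about 1 call in 100 departs from these limits); inconclusive = activation of 40% to 60%, or above that upper limit; inactive = activation under 40%.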 The list shows a part of the results.

Chain of UniProt O75388 (O75388 whole entry, looked up, the tested form may be a part): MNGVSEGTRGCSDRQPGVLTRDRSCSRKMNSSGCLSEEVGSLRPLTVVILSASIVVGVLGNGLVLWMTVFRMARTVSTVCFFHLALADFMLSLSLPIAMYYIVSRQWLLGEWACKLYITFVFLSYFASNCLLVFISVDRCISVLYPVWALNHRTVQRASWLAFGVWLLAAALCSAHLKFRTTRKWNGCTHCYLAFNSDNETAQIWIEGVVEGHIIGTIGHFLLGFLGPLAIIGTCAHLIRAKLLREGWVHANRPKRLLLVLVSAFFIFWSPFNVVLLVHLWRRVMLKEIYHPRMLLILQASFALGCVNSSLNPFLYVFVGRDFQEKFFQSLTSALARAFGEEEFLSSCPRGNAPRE

For the assay, the target named is Probable G-protein coupled receptor 32 (Homo sapiens) (UniProt O75388). Nature of the assay: qHTS for Agonists of Human Resolvin D1 Receptor DRV1. Note: 0% is about no effect. Particulars: CHO-K1 GPR32 beta-arrestin PathHunter luminescence, 90 min; at 76.9 µM; hits give high values; zero percent set by DMSO-only wells. The method in brief:
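Agonism was scored as beta-arrestin recruitment to ProLink-fused GPR32 in stably transfected CHO-K1 cells, giving a chemiluminescent beta-Gal signal; compounds were incubated 90 min at 37 °C.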
For orientation: Quantitative high-throughput screening tests each substance at several concentrations.
On to `COc1ccc(-n2nc3c(c2NC(=O)C(=O)NCc2ccccc2)CSC3)cc1`, for which the activation is inactive: -32.3%.

As to `Cc1ccc(Cn2c3ccccc3c3cnn(CC(=O)N4CCCCCC4)c(=O)c32)cc1`, the activation is inactive: -6.63%.

Turning to `COC(=O)c1ccc(NC(=O)CSc2nccn2Cc2ccc(Cl)cc2)cc1`, the activation is inactive: 4.18%.

Turning to `COC(=O)c1cc2oc(C)cc2n1CC(=O)Nc1ccc(OC)c(OC)c1`, the activation was inactive: -3.71%.

Regarding `CCOc1ccc(-n2c(=O)c3c(C)c(C)sc3n(Cc3c(F)cccc3Cl)c2=O)cc1`, the activation is inactive: -13.3%.

On to `Cn1c(=O)c(=O)n(C)c2cc(NC(=O)c3cccc(F)c3)c(Cl)cc21`, for which the activation was inactive: 12.4%.

`CCCSCCCNC(=O)C1CCCN(c2nn3cc(-c4ccc(OC)cc4)nc3s2)C1` (stereo not drawn): the activation is inactive: -28.7%.

With `Cc1ccc2cccc(NC(=O)COc3cc(C)c(Cl)c(C)c3)c2n1`, the activation was inactive: 25.2%.

In the case of `CN(C)CCCN(C(=O)c1ccc(Br)s1)c1nc2ccc(F)cc2s1`, the activation was inactive: 40.3%.

Take `CCOc1ccccc1CNC(=O)CCCn1ncn2c(cc3occc32)c1=O`: the activation is inactive: 1.99%.

In the case of `CCOc1ccc(C(=O)c2cn(CC(=O)Nc3ccc(F)cc3)c3cc4c(cc3c2=O)OCO4)cc1`, the activation was inactive: -8.2%.

`COc1ccc(N(CC(=O)NCc2ccccc2Cl)S(=O)(=O)c2c(C)nn(C)c2C)cc1`: the activation is inactive: -25.6%.

In the case of `COc1ccc(CCNC(=O)Cn2c(=O)nc(-c3ccccc3)c3ccccc32)cc1OC`, the activation is inactive: -3.04%.

For `Cc1nn(CC(=O)Nc2ccccc2C(F)(F)F)c(=O)c2cccn12`, the activation is inactive: -3.52%.

Turning to `CCCCN(CC)CCNC(=O)CN1C(=O)COc2ccc(S(=O)(=O)N3CCCC3)cc21`, the activation was inactive: -6.16%.

Consider `CCOc1ccc(C(=O)Nc2c(C(=O)c3ccc(OC)cc3)oc3ccccc23)cc1`, for which the activation is inactive: -4.55%.

As to `Cc1ccccc1NC(=O)N1CCc2c(sc3c2CCCC3)C1c1ccccc1` (stereo not drawn), the activation was inactive: -3.5%.

As to `COc1ccc(NC(=O)c2ccc3nc(CCc4ccccc4)oc3c2)c(OC)c1`, the activation was inactive: -19.8%.

As to `O=C(NCCc1ccccc1)c1ccc(Cn2c(SCc3cccc(F)c3)nc3cccnc32)cc1`, the activation is inactive: -17.8%.

`COCCNC(=O)CCc1c(C)nc2c(-c3ccc(F)cc3)c(C)nn2c1C`: the activation was inactive: 11.8%.

For `COc1cc(C(CC(=O)Nc2ccc(F)cc2F)N2Cc3ccccc3C2=O)cc(OC)c1OC` (stereo not drawn), the activation is inactive: -0.81%.

`COc1ccc(CCNC(=O)CCCCn2c(=O)c3ccccc3n(Cc3ccccc3C)c2=O)cc1OC`: the activation is inactive: -24.5%.

As for `CCn1c(NCc2ccc(OC)cc2)nc2ccccc21`, the activation was inactive: -26.4%.

For `CCOc1ccc(NC(=O)c2ccc3c(=O)n4nc(Nc5ccccc5C)sc4nc3c2)cc1`, the activation was inactive: -2.82%.

In the case of `CCS(=O)(=O)c1ncc(N(Cc2ccccc2)Cc2ccco2)c(C(=O)Nc2ccc(C)c(C)c2)n1`, the activation was inactive: -14.8%.

Consider `COc1cccc(NC(=O)Cn2nnc(-c3nc(-c4ccccc4)no3)c2N)c1`, for which the activation was inactive: 4.11%.

On to `O=C(Cn1c(=O)oc2cc(Cl)ccc21)Nc1cccc(C(F)(F)F)c1`, for which the activation is inactive: 12.5%.

`Cc1nc2ncnn2c(C)c1CCC(=O)N1CCN(c2ccccc2)CC1`: the activation was inactive: -0.582%.

As for `CCc1ccccc1NC(=O)Cn1c(=O)n(-c2ccc(C)cc2)c(=O)c2c1c1cc(C)ccc1n2C`, the activation is inactive: 8.26%.

As for `COc1ccc(OC)c(NC(=O)c2cc3cc(C)ccc3n2C)c1`, the activation is inactive: -20.2%.

As for `CCCCCn1cc2c(c1-c1ccc(Br)cc1)c(=O)n(C)c(=O)n2C`, the activation is inactive: 2.74%.

In the case of `CCC(=O)Nc1ccc(CC)cc1-c1nc2ccccc2n(CC(=O)Nc2cccc(Cl)c2)c1=O`, the activation was inactive: -11.2%.

With `CCCCc1nn2c(=O)cc(COC(=O)c3cccc(NC(=O)CCc4ccccc4)c3)nc2s1`, the activation was inactive: -6.87%.

Regarding `CCOC(=O)c1ccc(NC(=O)/C(C#N)=C/c2ccc(OC)cc2)cc1`, the activation was inactive: 10.4%.

`CCc1ccc(-n2c(=O)c3c(C)c(C)sc3n(CC(=O)NCc3ccc(C)cc3)c2=O)cc1`: the activation is inactive: -2.32%.

On to `N#C/C(=C/c1ccc(Cl)cc1)c1nc(-c2ccc(Br)cc2)cs1`, for which the activation was inactive: -0.373%.

Take `O=S(=O)(NCc1nc2cccnc2n1Cc1ccccc1)c1ccc2c(c1)CCCC2`: the activation was inactive: -23.7%.

On to `CCCN(CCC)C(=O)Cn1c(=O)n(-c2ccccc2)c(=O)c2c3c(sc21)CCCC3`, for which the activation was inactive: -19.2%.

For the compound `COc1cc(/C=C(\C#N)c2nc3ccccc3[nH]2)cc(Cl)c1OCc1ccccc1Cl`, the activation is inactive: 9.24%.

On to `Cc1ccc(CSc2oc(-c3ccco3)nc2S(=O)(=O)c2ccc(C)cc2)cc1`, for which the activation is inactive: -23.6%.

Regarding `O=C(CCC1N=C2c3ccccc3N=C(SCc3ccc(Cl)cc3)N2C1=O)NCCc1ccccc1` (stereo not drawn), the activation is inactive: -13.5%.

For the compound `Cc1ccc(NS(=O)(=O)c2ccc3[nH]c(=O)oc3c2)c(C)c1`, the activation was inactive: -1.66%.

Regarding `COc1cc2nc(SCC(=O)Nc3c(C)cc(C)cc3C)n3nc(CCn4c(C)nc5ccccc54)nc3c2cc1OC`, the activation was active: 83.2%.

As to `Cc1c(NC(=O)Nc2ccc(Br)cc2F)sc2nc3n(c(=O)c12)CCC(C)CC3` (stereo not drawn), the activation was inactive: 15%.

`CCOC(=O)c1c(S(=O)(=O)NCC(=O)N2CCN(c3ccccc3)CC2)c(C)n(C)c1C`: the activation was inactive: 15.2%.

On to `COc1ccccc1CNC(=O)CCn1c(=O)c2ccccc2n(CC(=O)Nc2ccc(C)cc2Cl)c1=O`, for which the activation is inactive: 8.12%.

Consider `Fc1ccc(C(NCCc2ccc(Cl)cc2)c2nnc(-c3ccccc3)o2)c(Cl)c1` (stereo not drawn), for which the activation was inactive: -42.2%.

On to `CC(=O)NCC(c1ccc2c(c1)OCO2)N1CCN(c2ccccc2)CC1` (stereo not drawn), for which the activation is inactive: 1.34%.

For the compound `CCCn1c2ccccc2c2cnn(CC(=O)N(C)c3ccccc3CC)c(=O)c21`, the activation was inactive: -22.1%.

Regarding `CCc1cccc(C)c1NC(=O)c1cc(S(=O)(=O)NCc2ccccc2Cl)ccc1F`, the activation was inactive: 3.45%.

Regarding `COc1cccc(CNC(=O)c2ccc3c(c2)nnn3C2CCCC2)c1`, the activation was inactive: -34.4%.

Consider `Cc1ccc(N(CC(=O)NCc2ccc(F)cc2)S(=O)(=O)c2c(C)nn(C)c2C)cc1`, for which the activation was inactive: 1.51%.

On to `COc1ccc(-n2nc(C(=O)Nc3ccc(C)cn3)c3c4ccccc4n(C)c3c2=O)cc1`, for which the activation was inactive: -8.49%.

Turning to `Cc1ccc(-n2cc(-c3ccccc3)nc2S(=O)(=O)CC(=O)Nc2ccc(F)cc2)cc1`, the activation is inactive: -20.8%.

In the case of `CCCCSCCCNC(=O)c1cn(C)c2ccc(S(=O)(=O)N3CCCCC3)cc2c1=O`, the activation was inactive: -0.385%.

Turning to `COc1ccc(OC)c(NC(=O)Cn2ccc3ccccc3c2=O)c1`, the activation is inactive: 11.4%.

With `COc1ccccc1C(=O)Nc1nnc(SCc2cc(=O)c3cc(Cl)ccc3[nH]2)s1`, the activation is inactive: -1.14%.

Consider `COc1ccc(NC(=O)c2c(-c3ccc(C)cc3)nnc3ccccc23)cc1Cl`, for which the activation was inactive: -4.66%.

For the compound `CCN(CC)C(=O)Cn1c(=O)n(-c2ccc(OC)cc2OC)c(=O)c2c(C)c(C(=O)N(CC)CC)sc21`, the activation is inactive: -10.1%.

As for `O=C(CNC(=O)c1ccccc1F)OCc1cc(=O)n2ccsc2n1`, the activation was inactive: -33.6%.

Regarding `Cc1ccc(C)c(N2CCN(C(=O)C3CCCN(S(=O)(=O)c4cccc5nsnc45)C3)CC2)c1` (stereo not drawn), the activation is active: 66%.

In the case of `CCN(CC)CCCCCCCCOC(=O)c1cc(OC)c(OC)c(OC)c1`, the activation is inactive: 5.38%.

In the case of `O=S(=O)(c1ccccc1)c1nc(-c2ccc(Cl)cc2Cl)oc1N1CCCCC1`, the activation was inactive: -9.44%.

Turning to `Cc1nc(-c2ccc(Cl)cc2)sc1CCNC(=O)Cc1ccc(F)cc1`, the activation was inactive: -5.09%.

In the case of `COc1ccc(C)cc1NC(=O)Cn1c(=O)cc(C)c2c(C)nn(C)c21`, the activation was inactive: -4.2%.

With `Cc1ccc(CN2CCN(C3CCN(C(=O)c4ccccc4)CC3)C(=O)C2=O)cc1`, the activation was inactive: -9.62%.

On to `Cc1ccc(C(=O)Nc2cccc(O)c2)cc1S(=O)(=O)N1CCCCCC1`, for which the activation was active: 82.3%.

Turning to `CCN(CC)CCCNC(=O)c1cn(CC)c2ccc(S(=O)(=O)N3CCc4ccccc4C3)cc2c1=O`, the activation is inactive: -4.73%.

For the compound `Cc1ccccc1CSc1nc2cc(C(=O)NC3CCCC3)ccc2c(=O)n1Cc1ccccc1`, the activation was inactive: -8.89%.

Take `Cc1ccc(O)c(NC(=O)c2ccc(Br)c(S(=O)(=O)N3CCCCC3)c2)c1`: the activation is inactive: -3.72%.

Consider `CCN(Cc1ccccc1)C(=O)Cn1cc(S(=O)(=O)Cc2cccc(Cl)c2)c2ccccc21`, for which the activation was inactive: -24.8%.

With `Cc1cc2c(cc1C)NC(CC(=O)Nc1ccccc1)C(=O)N2` (stereo not drawn), the activation is inactive: -15.7%.

Turning to `O=C(CCCn1c(=O)c2cccn2c2ccc(F)cc21)NCc1ccc(Cl)cc1`, the activation was inactive: -10.6%.

`CCc1ccc(NC(=O)C(=O)NCC(c2cccnc2)N2CCN(Cc3ccccc3)CC2)cc1` (stereo not drawn): the activation is inactive: -23.1%.

`CCCSc1ccc2nc(NC(=O)OC)[nH]c2c1`: the activation is inactive: 31.1%.

In the case of `COC(=O)CC1Oc2ccccc2-n2cc(-c3ccccc3)nc21` (stereo not drawn), the activation is inactive: 26.1%.

Take `CC1CCN(C(=O)CSc2c(C(C)C)cnc3c2c(=O)n(C)c(=O)n3C)CC1`: the activation was inactive: -14.3%.

Turning to `Cc1ccc(-n2nc(CO)c(C(=O)NC(C)CCCc3ccccc3)n2)cc1C` (stereo not drawn), the activation was inactive: -26.3%.

In the case of `CCOc1ccc(CNS(=O)(=O)c2ccc3[nH]c(=O)ccc3c2)cc1`, the activation was inactive: 24.5%.

Take `CCCCOc1ccc(CNC(=O)c2ccc(NC(=O)N3CCCCc4ccccc43)cc2)cc1`: the activation was inactive: -5.25%.

For `CC(=O)Nc1nonc1-c1nnc(SCC(=O)Nc2ccccc2)n1-c1ccccc1`, the activation is inactive: -6.95%.

For the compound `CCC(=O)Nc1ccc2nc(SCCOc3ccccc3)sc2c1`, the activation was inactive: 23.4%.

Turning to `COC(=O)c1ccc(-n2c(CCC(=O)O)ccc2-c2ccc(C)cc2)cc1`, the activation was inactive: -31.6%.
